Assay results from PubChem BioAssay AID1347073 (National Center for Advancing Translational Sciences (NCATS), 2019).
The campaign covered roughly 45,000 compounds. About 200 (0.44%) were called active. About 7% were inconclusive and are not listed. Calls follow the shape of the dose curve; as a rule, active = well fitted activation curve with a large enough effect; inconclusive = small, poorly fitted or top-dose-only effect; inactive = no such curve, though single readings can be large or run the other way. The list shows a part of the results.

test: qHTS of TDP-43 Inhibitors: NCGC Sytravon Library Screen; settings: yeast TDP-43 toxicity rescue, BacTiter-Glo growth, 24 h; series mostly up to 46.1 µM; growth rescue (activation): at the top concentration; also: 0% is about no effect; nearly all actives have a fitted effect of over 55% in size
Method in brief: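 TDP-43-expressing yeast, pregrown in raffinose, seeded at OD600 0.02 in galactose medium with compound for 24 hr at 30 deg C. Growth read by BacTiter-Glo luminescence, so rescue of toxicity appears as activation.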

Row | SMILES | growth rescue (activation)
1 | O=C(Nc1ccc(S(=O)(=O)NC2=NCCCCC2)cc1)c1cccc(S(=O)(=O)N2CCOCC2)c1 | inactive: 3.72%
2 | CCOc1ccc(C(C)=O)cc1COc1ccc(C)nc1[N+](=O)[O-] | inactive: 20.3%
3 | O=C1OCC(c2ccccc2)=C1c1ccccc1[N+](=O)[O-] | inactive: 19.7%
4 | COc1ccc(Cc2nnc(SCC(=O)Nc3ccc(N4CCOCC4)cc3)n2C)cc1 | inactive: -8.72%
5 | C=CCn1c(SCc2ccc(Br)cc2F)nc2cc(C(=O)O)ccc2c1=O | inactive: 12.9%
6 | COc1ccc(-c2cc(NC=O)c3ncc(-c4cccc(C(=O)N(C)C)c4)n3c2)c(OC)c1 | inactive: 3.29%
7 | O=C(NCCCN1CCOCC1)c1cc(Cl)ccc1OCc1ccccc1 | inactive: -0.187%
8 | CN1CCN(NC(=O)c2cc(Br)ccc2Cl)CC1 | inactive: -15%
9 | Cc1cc(C)n(CC(=O)NNC(=O)c2cncc(Br)c2)n1 | inactive: 15.8%
10 | COc1ccc(CNC(=O)CN(c2ccc(C(C)=O)cc2)S(=O)(=O)c2ccc(C)cc2)cc1OC | inactive: 10.1%
11 | O=C(Nc1nnc(SCC(=O)N2CCOCC2)s1)C1CC(=O)N(c2ccccc2)C1 (stereo not drawn) | inactive: -3.76%
12 | CC(C)(C)NS(=O)(=O)c1cc(C(=O)O)ccc1Cl | inactive: 0.528%
13 | COc1ccc(/C=N/NC(=O)c2ccc(COc3cccc4cccnc34)cc2)cc1OC | inactive: 1.68%
14 | COc1cccc(N2C(=O)c3cccnc3C2O)c1 (stereo not drawn) | inactive: -13.4%
15 | Cc1ccc(C(=O)NC2CCCCCCC2)cc1S(=O)(=O)N1CCOCC1 | inactive: 24.4%
16 | CN(C)S(=O)(=O)c1cccc(NC(=O)c2cc3c(cc2Cl)N2CCCCCC2=NS3(=O)=O)c1 | inactive: 16.4%
17 | Cc1ccc(NC(=O)C2CCN(S(=O)(=O)c3cccs3)CC2)cc1C | inactive: -0.0814%
18 | COc1cccc(NC(=O)CSc2nnc(NC(=O)C3CC3)s2)c1 | inactive: 13.1%
19 | CN1CCN(C(=S)Nc2ccc(Oc3ccccc3)cc2)CC1 | inactive: 5.43%
20 | COc1ccc(C(=O)Nc2ccc(NC(=O)c3cccs3)cn2)cc1 | inactive: 14.3%
21 | COc1ccc(N(CC(=O)NC2CC3CCC2C3)S(=O)(=O)c2ccccc2)cc1OC (stereo not drawn) | inactive: -22.6%
22 | Cc1ccc(CN(C)C(=O)CCc2c[nH]c3ccccc23)o1 | inactive: 16.9%

Row | SMILES | growth rescue (activation)
23 | O=c1[nH]c(C2CCN(S(=O)(=O)c3ccc(S(=O)(=O)NC4CC4)cc3)CC2)nc2c1nnn2Cc1ccc(F)cc1 | inactive: 5.13%
24 | O=S(=O)([O-])C/C(=C\c1ccc(Cl)cc1)c1cc[n+](CCO)cc1 | inactive: 5.68%
25 | CC(C)=CCn1c2ccc(NC(=O)Nc3ccc(N(C)C)cc3)cc2c(=O)n1C | inactive: 2.75%
26 | CC(C)(C)n1ncc2c(=O)n(CC(=O)OCc3ccccc3)cnc21 | inactive: -24.6%
27 | CCN(CC)c1ncnc2c1ncn2[C@H]1CN(Cc2ccc(F)cc2)C[C@@H](CO)O1 | inactive: 4.82%
28 | CCC(C)C(=O)Nc1nnc(SCC(=O)NC2CCCC2)s1 (stereo not drawn) | inactive: -10%
29 | COc1ccc(-c2cc(-c3nnc(COC(=O)c4ccc(O)cc4)o3)c3ccccc3n2)cc1OC | inactive: 16.9%
30 | Cn1nc(OCCOc2ccccc2)ccc1=O | inactive: 6.14%
31 | Cc1ccc(CCNC(=O)C2CCC(=O)N2CCc2ccccc2)cc1 (stereo not drawn) | inactive: -2.91%
32 | CCC(C)c1ccccc1NC(=O)CN(CC)CC(=O)Nc1ccc2c(c1)OCCO2 (stereo not drawn) | inactive: 15.6%
33 | CC(C)CC(=O)Nc1ccc(N2CCN(C(=O)c3cccs3)CC2)cc1 | inactive: 3.29%
34 | CC(C)CN1CCC(CN(C)Cc2nc(-c3cnccn3)no2)CC1 | inactive: -4.29%
35 | COc1cc(=O)[nH]c(SC(C)C(=O)Nc2cccc3ccccc23)n1 (stereo not drawn) | inactive: 10.3%
36 | CCOC(=O)N1CCN(C(=O)NC23CC4CC(CC(C4)C2)C3)CC1 | inactive: -7.19%
37 | CCCC(C)(C)C(=O)N1CCC1(C)C(=O)NS(=O)(=O)c1cccc(Cl)c1 (stereo not drawn) | inactive: -8.76%
38 | CCN(CC)S(=O)(=O)c1ccc(O)c(C(=O)OCC(=O)Nc2ccc(OC(F)(F)F)cc2)c1 | inactive: -11%
39 | CCOC(=O)c1cnn(-c2ccccc2)c1NC(=O)CCl | inactive: -3.59%
40 | O=C(NC1CCCC1)C(c1cccnc1)N(C(=O)c1csnn1)c1ccccc1 (stereo not drawn) | inactive: 9.26%
41 | Cc1nnc(SCC(=O)NC(C)(C)C)n1NCc1ccc(N(C)C)cc1 | inactive: 7.22%
42 | O=C(Nc1ccc([N+](=O)[O-])cc1Br)c1cc2ccccc2nc1Cl | inactive: 0.353%
43 | O=C(CCl)Nc1ccc(-c2ccccc2)cc1 | inactive: 25%
44 | COC(=O)C1=C(C)NC(=O)CC1c1ccccc1OC (stereo not drawn) | inactive: 8.03%

Row | SMILES | growth rescue (activation)
45 | CCCc1nnc(SCC(=O)Nc2cc(C)on2)n1CCOC | inactive: -5.27%
46 | CS(=O)(=O)N(CC(=O)N1CCc2ccccc2C1)c1cccc(F)c1 | inactive: 2.4%
47 | CCCn1nnc(NC(=O)c2ccc([N+](=O)[O-])cc2Cl)n1 | inactive: 17.6%
48 | Nc1ncnc2nc(SCCOc3ccc(Cl)cc3)[nH]c12 | inactive: 19.4%
49 | OC[C@@H]1CN(CCN2CCOCC2)C[C@H](n2cnc3c(NC4CCCC4)ncnc32)O1 | inactive: 9.69%
50 | COc1cc(NC(=O)CN2CCN(c3ccccn3)CC2)cc(OC)c1OC | inactive: -14.6%
51 | OCCOCCN1CCN(C(=S)Nc2ccccc2)CC1 | inactive: -1.63%
52 | COc1ccc(Cc2noc(CN3CCCN(Cc4ccc(F)cc4)CC3)n2)cc1OC | inactive: 0.257%
53 | CC(=O)C1=C(O)C(=O)N(c2cccnc2)C1c1cccc([N+](=O)[O-])c1 (stereo not drawn) | inactive: -11.6%
54 | CCc1ccccc1Nc1nc(N)nc(CSc2nnc3ccccn23)n1 | inactive: 9.62%
55 | CCOC(=O)C(=O)Nc1cc([N+](=O)[O-])ccc1C | inactive: -20.4%
56 | Cc1nnc(-c2cnn(C)c2N)n1CCCN1CCOCC1 | inactive: 6.38%
57 | CC(C)N(C)c1ncnc2c1ncn2[C@H]1CN(Cc2cccnc2)C[C@@H](CO)O1 | inactive: 7.52%
58 | Clc1ccc(-c2ccc(CNCC3CCCO3)o2)cc1 (stereo not drawn) | inactive: 5.88%
59 | Cc1ccccc1C(=O)NC(C)C1CC2CCC1C2 (stereo not drawn) | inactive: 14.1%
60 | C/C(=N\NS(=O)(=O)c1ccccc1)c1cc(Cl)cc(Cl)c1O | inactive: -80.4%
61 | CCN(Cc1nc(-c2ccccc2)no1)C(=O)COc1cccc(OC)c1 | inactive: 0.483%
62 | Cc1ccc(S(=O)(=O)NC2=NCN(CC(=O)O)CN2)cc1 | inactive: 9.62%
63 | O=S(=O)(Nc1ccccc1)c1ccc(NS(=O)(=O)c2cccs2)cc1 | inactive: 18.1%
64 | COc1ccc(CC(=O)NCC2(c3ccc(OC)c(OC)c3)CCOCC2)cc1 | inactive: 24.1%
65 | COc1ccc(/C=N/NC(=O)CN2CCCc3ccccc32)c(OC)c1 | inactive: 28.5%
66 | Cc1ccc(NC(=O)NCc2nc3ccccc3n2C)cc1 | inactive: -19.9%

Row | SMILES | growth rescue (activation)
67 | CC(=O)Nc1ccc(NC(=O)CCc2c(C)nc3c(c(C)nn3-c3ccc(C)cc3)c2C)cc1 | inactive: 5.1%
68 | CCOc1ccccc1NC(=O)NCc1cccnc1 | inactive: -10.4%
69 | Cc1ccccc1OCC(=O)NN1C(=O)C2C3C=CC(O3)C2C1=O (stereo not drawn) | inactive: -12.8%
70 | Cc1cc(Nc2cccc([N+](=O)[O-])c2)c2cccc(C)c2n1 | inactive: 9.66%
71 | C(#Cc1ccc(C#CCN2CCCC2)cc1)CN1CCCC1 | inactive: 21.7%
72 | CCOc1cc(/C=N/n2nnnc2N)ccc1OCc1c(C)no[n+]1[O-] | inactive: 9.23%
73 | Cc1ccc(S(=O)(=O)N(CC(=O)N2CCOCC2)c2ccc(Br)cc2)cc1 | inactive: 5.01%
74 | CCOC(=O)c1c(NC(=S)Nc2ccc(OC)cc2)sc2c1CCC2 | inactive: 12.5%
75 | CCOC(=O)N1CCN(C(=O)c2cc3c(=O)n4cccc(C)c4nc3s2)CC1 | inactive: 13.3%
76 | O=C(Nc1cnn(Cc2ccc(F)cc2)c1)c1cc(-c2ccco2)on1 | inactive: 12.8%
77 | COc1ccc(S(=O)(=O)N2CCCCC2)cc1N(C)S(=O)(=O)c1ccccc1 | inactive: -8.14%
78 | NC(=O)CCN1CCN(Cc2cn[nH]c2-c2cccc3ccccc23)CC1 | inactive: 5.97%
79 | CCN(Cc1ccccc1)C(=O)CS(=O)(=O)c1ccccc1 | inactive: -6.12%
80 | OCC1(CCOc2ccccc2)CCN(CC2=Cc3cc(Cl)ccc3OC2)CC1 | inactive: 10.1%
81 | O=C(COC(=O)C1CC2C=CC1C2)Nc1ccccc1 (stereo not drawn) | inactive: 10.4%
82 | COc1ccc(Nc2nc(N)c(C(=O)c3ccc(OC)cc3)s2)cc1 | inactive: -6.82%
83 | CC1(C(=O)Nc2ccc3c(c2)OCO3)Cc2c(-c3ccc4c(c3)OCO4)ccnc2O1 (stereo not drawn) | inactive: 13.1%
84 | COc1ccc(F)cc1C(=O)C1CCCN(Cc2cccn2-c2ccccn2)C1 (stereo not drawn) | inactive: -4.01%
85 | COc1ccccc1OCCNC(=O)C1CCCCC1 | inactive: -4.74%
86 | O=C(CSc1nnc(SCc2ccc(Cl)cc2)s1)N/N=C/c1ccccc1Cl | inactive: 6.73%
87 | CCCCCCC1/C(=N/O)CCC1C(=O)OC (stereo not drawn) | inactive: 8.43%
88 | C/C(N)=C(/C#N)C(=O)CSc1nnc(Nc2ccccc2)s1 | inactive: 3.45%

Row | SMILES | growth rescue (activation)
89 | Cc1cc(C(=O)Cn2cnc3ccc(Cl)cc3c2=O)c(C)n1C1CC1 | inactive: -32.4%
90 | COc1ccccc1CN(CC(=O)NCc1ccc(F)cc1)C(=O)c1csnn1 | inactive: 13.1%
91 | O=C(CSc1nc(O)cc(=O)[nH]1)N1c2ccccc2Sc2ccccc21 | inactive: 19.1%
92 | O=C(Nc1ccc(N2CCOCC2)cc1)c1csc([C@H]2C[C@H](O)[C@@H](CO)O2)n1 | inactive: -5.08%
93 | COCCCn1c(SCC(=O)NC(C)(C)C)nnc1-c1cccs1 | inactive: -18.2%
94 | O=C(N/N=C/c1c[nH]c2ccccc12)c1ccc(Br)cc1 | inactive: -4.33%
95 | CC1(C(=O)NS(=O)(=O)C2CC2)CCN(C(=O)c2ccccc2OC(F)(F)F)C1 (stereo not drawn) | inactive: -17%
96 | O=C(O)c1c2c(nc3ccccc13)/C(=C/c1ccc(OC(F)F)cc1)CCC2 | inactive: 12.9%
97 | CC(Sc1ccc(Cl)cc1)C(=O)NNC(=O)c1ccco1 (stereo not drawn) | inactive: 29.6%
98 | Cc1ccc(C(=O)COC(=O)C2CCC2)cc1 | inactive: -12.6%
99 | O=C(NCCc1ccccc1)C1CCC(=O)N1CCc1ccccc1 (stereo not drawn) | inactive: 12.1%
100 | CN(C(=O)c1cc(S(=O)(=O)N2CCOCC2)cs1)c1ccccc1 | inactive: 3.35%
101 | CN(C)CCCC(=O)c1ccc2c(c1)OCO2 | inactive: -2.25%
102 | Cc1c(C(=O)NC(=S)NCC(C)C)oc2ccccc12 | inactive: 13.8%
103 | Cc1ccc(-n2nc3c(=O)n(CC(=O)Nc4ccccc4F)nc(C)c3c2C)c(C)c1 | inactive: 2.53%
104 | COc1ccc(/C=C2\SC(=NCc3ccccc3)N(Cc3ccccc3)C2=O)cc1OC | inactive: 8.38%
105 | Cc1c(Cl)c([N+](=O)[O-])nn1CC(=O)NCc1cccnc1 | inactive: 14.4%
106 | Fc1ccc(CNCCC(Cc2ccccc2)c2ccco2)cc1 (stereo not drawn) | inactive: -1.87%
107 | CSc1ccc(CN2CCC(CO)(Cc3ccc(Cl)cc3)CC2)cc1 | inactive: 0.3%
108 | CCOc1ccccc1OCCCC(=O)Nc1cc(S(=O)(=O)N2CCOCC2)ccc1OC | inactive: 7.91%
